Results on four compounds are retold here after ChEMBL document CHEMBL1800027, “Imidazolopiperazines: hit to lead optimization of new antimalarial agents” (J Med Chem, 2011).

Series [1] is described as follows: in vivo. The conditions noted are these: female, CD1, mouse, iv, 5 mg/kg.
Series [2] can be described thus: in vitro. The note with it: human, Caco-2.
Series [3] is described as follows: in vivo. The note with it: female, CD1, mouse, plasma, po, 30 mg/kg.
Series [4] in a line: in vivo. The note with it: female, CD1, mouse, iv, 5 mg/kg. This is another data set of the same source.
The conditions of series [5]: PAMPA. (In PAMPA a lipid-coated filter parts donor from acceptor wells.)
Series [6] is described as follows: in vivo. The note with it: female, CD1, mouse, po, 30 mg/kg.
Series [7] is described as follows: in vivo. The conditions noted are these: female, CD1, mouse, iv, 5 mg/kg. This is another data set of the same source.
A short description of series [8]: in vivo. The note with it: female, CD1, mouse, iv, 5 mg/kg. The source holds these as a separate data set.

Broadly, the AUC(0-inf) is the area under the concentration-time curve extrapolated to infinity. What is called Papp A→B is the apparent permeability from the apical to the basolateral side of a cell layer. Low values mean poor permeation, high ones ready permeation. In general, half-life refers to how long it takes for the measured level to halve. Read a high half-life as slow decline. Usually clearance stands for the rate of elimination divided by the concentration. For orientation: Vd means a proportionality between amount in the body and measured concentration, not a real space. High values mean wide distribution into tissue, low ones little distribution into tissue.

SMILES strings stand for the structures.

In the case of `Cc1ccc(Nc2c(-c3ccc(F)cc3)nc3n2CCN(C(=O)CN)C3)cc1`, the AUC(0-inf) is 0.976 µM·h in series [1] and 2.34 µM·h in series [3]. The Papp A→B in series [2] amounted to 1.63 ×10⁻⁶ cm/s. The half-life in series [4] is 3.6 h; in series [6], 4.8 h. The same compound returned a permeability in series [5] of 52%. Further, the clearance in series [7] was determined as 222 mL/min/kg.
In series [8], `NCC(=O)N1CCn2c(nc(-c3ccc(F)cc3)c2Nc2ccc(Cl)c(F)c2)C1` came in with a Vd of 1.5 L/kg. The figures for the AUC(0-inf) in series [1] and in series [3] were 20.6 µM·h and 6.17 µM·h, respectively. For the same compound, in series [2], the Papp A→B was determined as 0.75 ×10⁻⁶ cm/s. The results for the half-life in series [4] and in series [6] were 3.8 h and 3.6 h, respectively. Besides, the permeability result in series [5] was “impermeable”. The compound further returned a clearance in series [7] of 10.3 mL/min/kg.
As for `Cc1ccc(Nc2c(-c3ccc(F)cc3)nc3n2CCN(C(=O)C(C)(C)N)C3)cc1`, the Vd in series [8] turned out to be 41.1 L/kg. Further, the figures for the AUC(0-inf) in series [1] and in series [3] were 5.25 µM·h and 18 µM·h, respectively. This compound came in with a Papp A→B in series [2] of 0.96 ×10⁻⁶ cm/s. The values for the half-life in series [4] and in series [6] were 13.7 h and 15.5 h, respectively. Moreover, in series [5], the permeability is recorded as 96%. In series [7], this compound yielded a clearance of 42 mL/min/kg.
On to `CC(C)(N)C(=O)N1CCn2c(nc(-c3cccc(F)c3)c2Nc2ccc(F)cc2)C1`, for which the AUC(0-inf) in series [1] was found to be 1.32 µM·h; in series [3], 3.72 µM·h. The Papp A→B in series [2] is 1.07 ×10⁻⁶ cm/s. Further, the half-life in series [4] and in series [6] was 2.3 h in each case. In series [5], the permeability amounted to 92%. This compound also came in with a clearance in series [7] of 134 mL/min/kg.
